PMC10470960
Results are given in words; binding and its absence hold for the method and conditions named. Some binding calls cover weakened binding; strength is not graded here. Where a sequence is shown, tags or fusion partners need not be part of it.

Columns and labels:
Experiment in all cases: two-hybrid; one-hybrid assay: Kar4p-Gal4 DNA-binding domain recruits endogenous Ste12p to drive the HIS3 reporter in PJ69-4A; 10-fold serial dilutions on SC-HIS with 3 uM alpha-factor, 30 degrees; graded ++++ to -
[1] = target: T1, Kar4p E183K fused to the Gal4p DNA-binding domain (S. cerevisiae) (UniProt P25583)
T1 sequence: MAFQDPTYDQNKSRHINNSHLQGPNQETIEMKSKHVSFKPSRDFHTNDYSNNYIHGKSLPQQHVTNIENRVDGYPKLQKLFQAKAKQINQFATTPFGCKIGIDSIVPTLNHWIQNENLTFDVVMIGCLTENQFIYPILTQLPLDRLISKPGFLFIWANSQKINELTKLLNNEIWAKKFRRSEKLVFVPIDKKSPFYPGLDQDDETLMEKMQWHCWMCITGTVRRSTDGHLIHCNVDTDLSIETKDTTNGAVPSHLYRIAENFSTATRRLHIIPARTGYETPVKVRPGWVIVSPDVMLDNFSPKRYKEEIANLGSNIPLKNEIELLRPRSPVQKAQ

[2] = target: T2, Kar4p G126A fused to the Gal4p DNA-binding domain (S. cerevisiae) (UniProt P25583)
T2 sequence: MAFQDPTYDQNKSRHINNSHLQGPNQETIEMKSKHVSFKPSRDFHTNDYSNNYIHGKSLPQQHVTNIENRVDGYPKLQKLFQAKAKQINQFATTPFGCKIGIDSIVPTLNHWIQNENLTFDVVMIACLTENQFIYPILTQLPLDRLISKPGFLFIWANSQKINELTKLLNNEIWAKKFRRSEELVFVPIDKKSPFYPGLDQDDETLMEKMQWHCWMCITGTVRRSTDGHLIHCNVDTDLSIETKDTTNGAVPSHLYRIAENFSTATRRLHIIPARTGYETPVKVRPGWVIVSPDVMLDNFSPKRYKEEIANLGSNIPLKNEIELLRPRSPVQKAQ

[3] = target: T3, Kar4p M207R fused to the Gal4p DNA-binding domain (S. cerevisiae) (UniProt P25583)
T3 sequence: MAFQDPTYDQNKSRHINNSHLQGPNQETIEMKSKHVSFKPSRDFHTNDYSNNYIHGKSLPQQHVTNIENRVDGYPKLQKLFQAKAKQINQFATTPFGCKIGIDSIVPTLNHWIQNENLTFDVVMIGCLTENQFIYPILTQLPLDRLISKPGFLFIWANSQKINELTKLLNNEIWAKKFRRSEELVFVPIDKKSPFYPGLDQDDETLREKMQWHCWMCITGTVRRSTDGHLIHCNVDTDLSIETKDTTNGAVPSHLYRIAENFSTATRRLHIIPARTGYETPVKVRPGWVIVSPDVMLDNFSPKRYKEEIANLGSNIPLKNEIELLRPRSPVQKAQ

[4] = target: T4, Kar4p P273L fused to the Gal4p DNA-binding domain (S. cerevisiae) (UniProt P25583)
T4 sequence: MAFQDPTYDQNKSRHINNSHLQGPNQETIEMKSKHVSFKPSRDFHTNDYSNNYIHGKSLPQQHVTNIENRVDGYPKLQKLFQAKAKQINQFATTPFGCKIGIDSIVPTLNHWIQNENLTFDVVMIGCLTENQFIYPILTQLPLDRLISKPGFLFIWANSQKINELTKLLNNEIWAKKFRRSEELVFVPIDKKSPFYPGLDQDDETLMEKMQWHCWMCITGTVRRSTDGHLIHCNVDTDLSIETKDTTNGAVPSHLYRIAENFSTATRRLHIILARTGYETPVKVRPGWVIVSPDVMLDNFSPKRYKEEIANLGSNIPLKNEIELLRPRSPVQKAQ

[5] = target: T5, Kar4p W156G fused to the Gal4p DNA-binding domain (S. cerevisiae) (UniProt P25583)
T5 sequence: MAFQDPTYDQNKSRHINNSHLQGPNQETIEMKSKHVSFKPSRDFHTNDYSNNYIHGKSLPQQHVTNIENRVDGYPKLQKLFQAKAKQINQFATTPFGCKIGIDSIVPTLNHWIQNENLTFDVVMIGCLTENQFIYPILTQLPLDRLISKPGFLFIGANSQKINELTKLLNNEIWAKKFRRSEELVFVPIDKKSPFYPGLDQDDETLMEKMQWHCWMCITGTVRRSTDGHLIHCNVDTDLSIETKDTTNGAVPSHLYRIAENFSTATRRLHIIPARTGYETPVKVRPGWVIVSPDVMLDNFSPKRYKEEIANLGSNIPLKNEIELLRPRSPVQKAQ

[6] = target: T6, Kar4p fused to the Gal4p DNA-binding domain (S. cerevisiae) (UniProt P25583)
T6 sequence: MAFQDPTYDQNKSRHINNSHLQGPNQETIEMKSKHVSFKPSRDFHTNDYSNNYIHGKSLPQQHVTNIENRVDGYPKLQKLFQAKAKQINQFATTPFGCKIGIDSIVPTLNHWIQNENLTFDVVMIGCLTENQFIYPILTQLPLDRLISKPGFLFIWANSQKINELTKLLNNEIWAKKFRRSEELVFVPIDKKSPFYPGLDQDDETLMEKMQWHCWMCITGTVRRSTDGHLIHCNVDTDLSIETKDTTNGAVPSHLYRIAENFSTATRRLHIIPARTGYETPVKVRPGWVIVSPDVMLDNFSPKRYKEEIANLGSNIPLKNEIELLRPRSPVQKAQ

- binding [1]: no binding
- binding [2]: no binding
- binding [3]: binds
- binding [4]: no binding
- binding [5]: no binding
- binding [6]: binds
B1: Ste12p (protein, UniProt P13574 1-688)
chain: MKVQITNSRTEEILKVQANNENDEVSKATPGEVEESLRLIGDLKFFLATAPVNWQENQIIRRYYLNSGQGFVSCVFWNNLYYITGTDIVKCCLYRMQKFGREVVQKKKFEEGIFSDLRNLKCGIDATLEQPKSEFLSFLFRNMCLKTQKKQKVFFWFSVAHDKLFADALERDLKRESLNQPSTTKPVNEPALSFSYDSSSDKPLYDQLLQHLDSRRPSSTTKSDNSPPKLESENFKDNELVTVTNQPLLGVGLMDDDAPESPSQINDFIPQKLIIEPNTLELNGLTEETPHDLPKNTAKGRDEEDFPLDYFPVSVEYPTEENAFDPFPPQAFTPAAPSMPISYDNVNERDSMPVNSLLNRYPYQLSVAPTFPVPPSSSRQHFMTNRDFYSSNNNKEKLVSPSDPTSYMKYDEPVMDFDESRPNENCTNAKSHNSGQQTKQHQLYSNNFQQSYPNGMVPGYYPKMPYNPMGGDPLLDQAFYGADDFFFPPEGCDNNMLYPQTATSWNVLPPQAMQPAPTYVGRPYTPNYRSTPGSAMFPYMQSSNSMQWNTAVSPYSSRAPSTTAKNYPPSTFYSQNINQYPRRRTVGMKSSQGNVPTGNKQSVGKSAKISKPLHIKTSAYQKQYKINLETKARPSAGDEDSAHPDKNKEISMPTPDSNTLVVQSEEGGAHSLEVDTNRRSDKNLPDAT
